Laboratory results reported in publication PMC4336329 (PLoS ONE, 2015).
The whole screen tested about 310,000 compounds, of which about 14,000 (4.5%) showed an effect of 50% or more. The effect is printed as a negative number. This is one part of the list.

Biological target: human ether-à-go-go-related gene (hERG) potassium channel (human, UniProt Q12809)
Experiment: primary screen, population patch clamp on CHO cells stably expressing hERG
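Note: peak tail current of the secondary pulse compared with the same well before compound.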

Chain of human ether-à-go-go-related gene (hERG) potassium channel (Q12809 whole entry, looked up): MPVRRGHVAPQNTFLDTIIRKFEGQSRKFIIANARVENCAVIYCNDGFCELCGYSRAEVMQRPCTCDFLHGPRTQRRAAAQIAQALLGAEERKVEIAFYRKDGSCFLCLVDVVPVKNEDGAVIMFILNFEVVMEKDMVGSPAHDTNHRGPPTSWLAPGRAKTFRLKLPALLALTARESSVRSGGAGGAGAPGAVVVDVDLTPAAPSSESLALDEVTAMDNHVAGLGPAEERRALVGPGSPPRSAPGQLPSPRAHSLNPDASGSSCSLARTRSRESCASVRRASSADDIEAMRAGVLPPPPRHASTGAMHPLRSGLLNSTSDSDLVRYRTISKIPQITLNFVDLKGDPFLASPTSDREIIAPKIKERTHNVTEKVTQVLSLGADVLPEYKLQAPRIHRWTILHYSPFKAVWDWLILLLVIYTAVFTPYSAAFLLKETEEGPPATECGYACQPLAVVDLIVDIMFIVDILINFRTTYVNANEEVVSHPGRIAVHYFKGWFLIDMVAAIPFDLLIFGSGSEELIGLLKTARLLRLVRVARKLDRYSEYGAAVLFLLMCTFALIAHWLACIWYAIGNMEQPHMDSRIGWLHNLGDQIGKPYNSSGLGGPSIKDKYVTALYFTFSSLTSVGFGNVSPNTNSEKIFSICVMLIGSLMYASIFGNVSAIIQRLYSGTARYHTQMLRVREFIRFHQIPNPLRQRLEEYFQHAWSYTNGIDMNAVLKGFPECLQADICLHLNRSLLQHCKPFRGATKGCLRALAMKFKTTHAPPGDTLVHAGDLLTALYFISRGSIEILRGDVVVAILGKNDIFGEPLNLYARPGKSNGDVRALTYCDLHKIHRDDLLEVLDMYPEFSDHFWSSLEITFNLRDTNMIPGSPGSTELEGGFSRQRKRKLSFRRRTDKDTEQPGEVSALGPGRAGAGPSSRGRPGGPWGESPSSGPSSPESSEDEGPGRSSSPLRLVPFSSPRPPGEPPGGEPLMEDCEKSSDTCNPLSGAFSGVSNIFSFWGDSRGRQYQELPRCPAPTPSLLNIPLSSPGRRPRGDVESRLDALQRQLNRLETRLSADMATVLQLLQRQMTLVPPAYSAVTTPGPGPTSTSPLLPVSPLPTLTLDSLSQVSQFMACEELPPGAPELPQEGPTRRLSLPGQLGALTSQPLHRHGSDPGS

Row | SMILES | hERG current change (%, negative = inhibition) at 10uM
1 | N#CCSc1nc2ccccc2c(=O)n1CCC(=O)NC1CCCCC1 | 1.01%
2 | Cn1nnnc1SCC(=O)Nc1ccccc1N1CCOCC1 | -3.35%
3 | CCNc1nnc(SCC(=O)N2c3ccccc3NC(=O)CC2C)s1 (stereo not shown) | 8.85%
4 | CCOC(=O)c1c(C)nc2c(c1C)/C(=N/O)CC(C)(C)C2 | -7.31%
5 | CCOc1nc(C)cc(C)c1S(=O)(=O)c1cccc(Cl)c1 | 9.27%
6 | O=C(Nc1ncc(Cc2ccccc2)s1)C1CCCO1 (stereo not shown) | 8.27%
7 | Cc1cc(NC(=O)CSc2nnc(CNC(=O)c3ccccc3)o2)no1 | 4.66%
8 | COCCSc1ccccc1C(=O)Nc1ccccc1C(C)C | 3.89%
9 | O=S(=O)(CCc1nnc(-c2ccc(Br)cc2)o1)c1ccc(Cl)cc1 | 4.62%
10 | CC1CCCC(NC(=O)CSC2CCCCC2)C1C (stereo not shown) | -11.3%
11 | O=C(Cn1cnc2c(nnn2-c2ccccc2)c1=O)N1CCCc2ccccc21 | -16.2%
12 | COc1ccc(-n2c(-c3ccccc3)c[n+]3c2CCC3)cc1.[Br-] | -20.5%
13 | O=c1c(/C=N/N2CCOCC2)c(C(F)(F)F)[nH]n1-c1ccccc1 | 11.4%
14 | COC(=O)c1ccc(C)c(NC(=O)C(CCSC)NC(=O)c2cc(OC)c(OC)c(OC)c2)c1 (stereo not shown) | 13.6%
15 | CCN(CCCNC(=O)c1c(C)cc(=O)oc1C)c1cccc(C)c1 | -65.3%
16 | COc1ccccc1NC(=O)C1Cc2ccccc2CN1C(=O)c1ccco1 (stereo not shown) | -6.67%
17 | O=C(Cn1cnc2c(nnn2Cc2ccccc2F)c1=O)NCc1ccco1 | -1.57%
18 | CNC(=O)COC(=O)c1ccc(NC(=O)CC#N)cc1 | 11.9%
19 | OC[C@H]1O[C@@H]2O[C@H]3[C@H](O)[C@@H](O)[C@@H](O[C@H]4[C@H](O)[C@@H](O)[C@@H](O[C@H]5[C@H](O)[C@@H](O)[C@@H](O[C@H]6[C@H](O)[C@@H](O)[C@@H](O[C@H]7[C@H](O)[C@@H](O)[C@@H](O[C@H]1[C@H](O)[C@H]2O)O[C@@H]7CO)O[C@@H]6CO)O[C@@H]5CO)O[C@@H]4CO)O[C@@H]3CO | -0.85%
20 | CCOC(=O)c1c(N)sc(C(O)(C(F)(F)F)C(F)(F)F)c1-c1ccc(F)cc1 | 13.7%
21 | Cc1ccc(NC(=S)Nc2ccc(Br)cc2)cc1 | 8.58%
22 | CC(=O)c1cccc(NC(=O)N2CCCC2C(=O)NC2CCCC2)c1 (stereo not shown) | 8.81%

Row | SMILES | hERG current change (%, negative = inhibition) at 10uM
23 | C/C(=N\NC(=O)CSc1nnc(C)s1)c1ccc(Cl)cc1 | -15.5%
24 | CN(CC(=O)Nc1ccccc1Cl)C(=O)Cn1nnc(-c2ccc(F)cc2)n1 | -11.7%
25 | CCN(CC)S(=O)(=O)c1ccc(NS(=O)(=O)c2ccc(OC)c([N+](=O)[O-])c2)cc1 | -3.92%
26 | CCCN(CC(=O)Nc1ccc(F)c(F)c1F)C(=O)C1=COCCO1 | 0.613%
27 | Cc1ccc(-c2nc3ccccc3c(=O)n2-n2cccc2)cc1 | -2.38%
28 | CCC(=O)N1CCc2cc(Br)cc(S(=O)(=O)NCC3CCCO3)c21 (stereo not shown) | -7.01%
29 | S=c1[nH]c(-c2ccccc2)cs1 | 66.4%
30 | O=C(NC(=S)Nc1ccc(S(=O)(=O)NC2CCCCC2)cc1)c1cccs1 | -0.405%
31 | Cc1cc(C(=O)CSc2nc(N)cc(=O)[nH]2)c(C)n1-c1ccc(OC(F)F)cc1 | -1.41%
32 | Cc1ccc2cc(C#N)c(SCC(=O)N3CCCc4ccccc43)nc2c1C | 6.26%
33 | Cc1ccccc1NC(=O)C(=O)NCc1ccccn1 | 6.07%
34 | CCOC(=O)c1[nH]c(C)c(C(=O)Nc2ccc(F)cc2)c1C | 5.45%
35 | C=CCN(Cc1cccc(OC)c1OC)C(=O)Oc1ccccc1 | 5.03%
36 | O=C(NCc1nc2ccccc2[nH]1)C1=C[C@@H](c2csc3ccccc23)C[C@@H](OCc2ccc(CO)cc2)O1 | -9.83%
37 | COc1ccccc1NC(=O)Cc1nc(CCl)cs1.Cl | 2.52%
38 | CC(=O)c1sc(NC(=O)C2CC(=O)N(Cc3ccccc3)C2)nc1-c1ccccc1 (stereo not shown) | -15%
39 | Cc1ccc(C)c(N2CCN(C(=O)C3CCN(S(=O)(=O)c4cccc5nsnc45)CC3)CC2)c1 | -8.49%
40 | C=CCNc1nc(C(=O)OCC(=O)NCc2ccccc2OC)cs1 | 7.07%
41 | C/C(=N\N=C(c1ccccc1)c1ccccc1)c1cccs1 | -3.59%
42 | COc1ccc(N2CCN(c3ncnc4scc(-c5ccccc5)c34)CC2)cc1 | 18.6%
43 | Cc1ccc(S(N)(=O)=O)cc1NC(=O)C(c1ccccc1)c1ccccc1 | 19.3%
44 | O=C(Nc1nnc(SCc2ccccc2F)s1)c1ccco1 | 5.38%

Row | SMILES | hERG current change (%, negative = inhibition) at 10uM
45 | O=C(O)c1ccc(Cn2c(SCc3cc(=O)n4cc(Br)ccc4n3)nc3ccsc3c2=O)cc1 | 16.5%
46 | COc1ccc(NC(=O)CCCN2C(=O)C(c3ccccc3)Oc3cccnc32)c(OC)c1 (stereo not shown) | 13.4%
47 | CCCc1c(C)[nH]c2ccc(NC(C)=O)cc2c1=O | 12.5%
48 | O=C(NCCc1ccc(Cl)cc1)c1ccc(CS(=O)Cc2ccc(Cl)cc2)o1 (stereo not shown) | -39.8%
49 | CCCCNCCOCCOc1ccc(C)cc1Br.O=C(O)C(=O)O | -32.1%
50 | CC(C)C[C@@H](NC(=O)C1CCC(CNC(=O)[C@@H]2CCCN2C(=O)OC(C)(C)C)CC1)C(=O)O (stereo partly shown) | 20.7%
51 | COc1ccc(C(=O)c2sc(Nc3ccccc3)nc2N)cc1 | 18.1%
52 | Cc1cc2oc(C(=O)Nc3ccc(S(=O)(=O)Nc4ncccn4)cc3)cc(=O)c2cc1Cl | -9.37%
53 | COc1cccc(N2CCN(C(=O)CCc3nnc4ccc(N5CCCC5)nn34)CC2)c1 | -28.7%
54 | O=C(NC1CCCC1)C(c1cccnc1)N(Cc1ccc(F)cc1)C(=O)c1csnn1 (stereo not shown) | -20.6%
55 | CCC1=Nc2ccc(Br)cc2C(c2ccccc2)N1CC(=O)OC (stereo not shown) | -59.1%
56 | O=C(CCS(=O)(=O)c1ccccc1)NCCS(=O)(=O)c1ccccc1 | 13.1%
57 | O=C(CCNC(=O)c1ccccc1Cl)Nc1ccccc1N1CCCC1 | 10.4%
58 | CCOC(=O)C1CCCN(S(=O)(=O)CCNC(=O)c2cccc(OC)c2)C1 (stereo not shown) | -6.37%
59 | CCOCCn1c(CN2CCOCC2)nc2c1c(=O)[nH]c(=O)n2C | 15.5%
60 | Cn1c(=O)c(=O)n(C)c2cc(N3CCOCC3)c(NS(=O)(=O)c3ccc([N+](=O)[O-])cc3)cc21 | 2.58%
61 | CCCN1CCN(CCCNC(=O)CCn2nc(-c3ccccc3)ccc2=O)CC1 | -47.4%
62 | O=C(NCc1nc2ccccc2[nH]1)c1ccc(S(=O)(=O)N2CCOCC2)cc1 | 7.47%
63 | COc1ccc(CCNc2nc(-c3ccncc3)cs2)cc1OC | -20.4%
64 | Cc1cccc(NC(=O)C23CCC(C)(/C(=N/O)C2)C3(C)C)c1 (stereo not shown) | -6.79%
65 | Cc1cc(=O)[nH]c(SCC(=O)Nc2ccc(Br)cn2)n1 | 8.76%
66 | COc1cc(/C=N/NC(=O)C[n+]2ccccc2)cc(OC)c1OC(C)=O.[Cl-] | 9.53%

Row | SMILES | hERG current change (%, negative = inhibition) at 10uM
67 | N#CCCNc1ccc(OCCC#N)cc1 | 13.8%
68 | CS(=O)(=O)N(Cc1ccccc1)c1ccc(C(=O)N2CCOCC2)cc1 | -8.27%
69 | CCOC(=O)C1(Cc2ccccc2)CCCN(Cc2ccc(OCC)c(CO)c2)C1 (stereo not shown) | -52.3%
70 | CCCCC(=O)Nc1ncc2c(n1)CC(C)(C)CC2=O | -5.63%
71 | Cc1ccc(NC(=O)/C(Cl)=C\c2ccccc2)cc1 | -3.3%
72 | O=C(COc1ccc([N+](=O)[O-])cc1)Nc1cccnc1 | -47.2%
73 | COc1ccc(CNc2ccc(-c3ccc(OC)cc3)nn2)cc1 | 0.778%
74 | CCN(CC)CCNC(=O)COc1ccc(OC)cc1.Cl | -9.07%
75 | O=C(NCc1ccccc1)c1nc2c(nnn2Cc2cccc(Cl)c2)c(=O)[nH]1 | -1.08%
76 | CCN(CC)c1ncn(Cc2c(Cl)cccc2Cl)c2ncnc1-2 | -21.2%
77 | O=C(c1ccc(Cl)cc1Cl)N1CCN(c2ccccn2)CC1 | -2.49%
78 | CCC(C)Sc1nc2c(c(=O)[nH]c(=O)n2C)n1CC(O)COc1ccccc1C (stereo not shown) | -0.743%
79 | O=C(CCNC(=O)c1ccc(Br)cc1)NCc1ccccc1F | -13%
80 | COc1ccccc1CNC(=O)C1CCN(S(C)(=O)=O)CC1 | -12%
81 | O=C(Nc1nnc(N2CCCCCC2)s1)c1cc(-c2ccc(Br)cc2)on1 | 12.2%
82 | NS(=O)(=O)c1ccc(CCNC(=O)c2cccc([N+](=O)[O-])c2)cc1 | 11.2%
83 | Cn1c(=O)[nH]c(=O)c2c1nc(NCCCn1ccnc1)n2Cc1ccccc1 | 2.75%
84 | S=C(NCCSCc1c(Cl)cccc1Cl)Nc1ccccc1 | -3.31%
85 | CCCOc1ccc(S(=O)(=O)N2CCN(C)CC2)c2ccccc12 | -27.8%
